The subject of one assay is OVCAR4. Briefly: log2 surviving fraction (library drug vs vehicle, or drug + carboplatin vs carboplatin alone; relative to plate median); ovarian cancer lines: OVCAR4 is platinum-sensitive and Ov4Carbo platinum-resistant; higher = more cell survival. The conditions noted are these: library drug concentration 10 µM, 7 days.
The test system of a further assay is Ov4Carbo. The assay is described as above. The conditions noted are these: library drug concentration 10 µM, 7 days.

Counter-ions that a name gives are not always drawn. Some of the results follow. Many values rest on one well or one pass, so single values are uncertain.

The results in this text go back to the supplement of paper PMC8047034.

Take `Nc1cc(C(Cl)=C(Cl)Cl)c(S(N)(=O)=O)cc1S(N)(=O)=O` [Clorsulon]: the log2 surviving fraction in the assay with OVCAR4 (carboplatin co-treatment 0 µM) is -0.0971; with OVCAR4 (carboplatin co-treatment 5 µM), 0.113; in the assay with Ov4Carbo (carboplatin co-treatment 0 µM), 0.00579; with Ov4Carbo (carboplatin co-treatment 5 µM) it was 0.583.
Turning to `CCCCCCCCCCC[C@@H](C[C@@H]1OC(=O)[C@H]1CCCCCC)OC(=O)[C@H](CC(C)C)NC=O` [Orlistat (Alli, Xenical)], the log2 surviving fraction was -0.335 with OVCAR4 (carboplatin co-treatment 0 µM), -0.636 with OVCAR4 (carboplatin co-treatment 5 µM), -1.04 with Ov4Carbo (carboplatin co-treatment 0 µM) and -0.572 with Ov4Carbo (carboplatin co-treatment 5 µM).
Consider `Cc1ncc([N+](=O)[O-])n1CC(C)O` (centres undefined) [Secnidazole (Flagentyl)], for which the log2 surviving fraction in the assay with OVCAR4 (carboplatin co-treatment 0 µM) is 0.0639; in the assay with OVCAR4 (carboplatin co-treatment 5 µM), -0.189; with Ov4Carbo (carboplatin co-treatment 0 µM), -0.376; in the assay on Ov4Carbo (carboplatin co-treatment 5 µM) it was 0.25.
For `CCc1oc2ccccc2c1C(=O)c1cc(Br)c(O)c(Br)c1` [Benzbromarone], the log2 surviving fraction is 1.21 in the assay on OVCAR4 (carboplatin co-treatment 0 µM), 0.169 in the assay on OVCAR4 (carboplatin co-treatment 5 µM), 1.24 in the assay with Ov4Carbo (carboplatin co-treatment 0 µM) and 0.622 with Ov4Carbo (carboplatin co-treatment 5 µM).
The like results for `Oc1cc(O)c(Cl)cn1` [Gimeracil] were, in that order, 1.14, 0.348, 0.971 and 1.17.
For `NCC1(CC(=O)O)CCCCC1` [Gabapentin Hydrochloride], the log2 surviving fraction with OVCAR4 (carboplatin co-treatment 0 µM) is 0.664; in the assay on OVCAR4 (carboplatin co-treatment 5 µM), -1.07; in the assay with Ov4Carbo (carboplatin co-treatment 0 µM), -9.66; in the assay on Ov4Carbo (carboplatin co-treatment 5 µM), -1.78.
On to `C[N+](C)(CCOc1ccccc1)Cc1ccccc1.O=C([O-])c1cc2ccccc2cc1O` [Bephenium Hydroxynaphthoate], for which the log2 surviving fraction is 0.275 in the assay with OVCAR4 (carboplatin co-treatment 0 µM), -0.696 in the assay on OVCAR4 (carboplatin co-treatment 5 µM), 0.254 in the assay on Ov4Carbo (carboplatin co-treatment 0 µM) and 1.49 with Ov4Carbo (carboplatin co-treatment 5 µM).
The like results for `Cc1cc(NS(=O)(=O)c2ccc(N)cc2)no1` [Sulfamethoxazole] were, in that order, 1.2, 1.4, 0.772 and -0.00576.
The like results for `CN(C(=O)CN(CCO)CC(=O)N(C)C(C)(C)Cc1ccccc1)C(C)(C)Cc1ccccc1` [Oxethazaine] were, in that order, -5.65, -4.65, -4.24 and -3.83.
On the same counts, the results for `C=C1/C(=C\C=C2/CCC[C@]3(C)[C@@H]([C@H](C)/C=C/[C@H](C)C(C)C)CC[C@@H]23)C[C@@H](O)C[C@@H]1O` [Doxercalciferol (Hectorol)] are -5.24, -0.338, -1.55 and -0.941.
For the compound `NCCc1ccc(O)c(O)c1` [Dopamine hydrochloride (Inotropin)], the log2 surviving fraction was -0.285 in the assay on OVCAR4 (carboplatin co-treatment 0 µM), -0.0583 in the assay on OVCAR4 (carboplatin co-treatment 5 µM), -0.204 with Ov4Carbo (carboplatin co-treatment 0 µM) and -0.495 in the assay with Ov4Carbo (carboplatin co-treatment 5 µM).
On the same counts, the results for `NS(=O)(=O)c1cc2c(cc1Cl)NC(C(Cl)Cl)NS2(=O)=O` (centres undefined) [Trichlormethiazide (Achletin)] are -0.177, 0.617, 1.75 and 0.511.
`COc1ccccc1OCC(O)COC(N)=O` (centres undefined) [Methocarbamol (Robaxin)]: the log2 surviving fraction with OVCAR4 (carboplatin co-treatment 0 µM) turned out to be 0.849; in the assay with OVCAR4 (carboplatin co-treatment 5 µM), 0.345; in the assay with Ov4Carbo (carboplatin co-treatment 0 µM), 0.347; in the assay with Ov4Carbo (carboplatin co-treatment 5 µM), 0.313.
The like results for `CC1(C)S[C@@H]2[C@H](NC(=O)[C@H](N)c3ccc(O)cc3)C(=O)N2[C@H]1C(=O)O` [Amoxicillin (Amoxycillin)] were, in that order, 0.41, -0.131, 0.213 and -0.0351.
On the same counts, the results for `O.O=[Si]=O.O=[Si]=O.O=[Si]=O.O=[Si]=O.[O]=[Mg].[O]=[Mg].[O]=[Mg]` are 0.645, 1.22, 0.329 and 0.548.
The like results for `O=C(O)C[C@H](O)C[C@H](O)/C=C/c1c(C2CC2)nc2ccccc2c1-c1ccc(F)cc1` [Pitavastatin calcium (Livalo)] were, in that order, -6.08, -5.51, -5.57 and -5.17.
For the compound `CCOCC(O)COc1ccc(NC(=O)CC[S+](C)C)cc1` (centres undefined) [Suplatast tosylate], the log2 surviving fraction in the assay on OVCAR4 (carboplatin co-treatment 0 µM) is 0.00699; with OVCAR4 (carboplatin co-treatment 5 µM), 0.3; in the assay on Ov4Carbo (carboplatin co-treatment 0 µM), -0.00809; in the assay on Ov4Carbo (carboplatin co-treatment 5 µM) it was -0.374.
The like results for `COC(=O)[C@H](c1ccccc1Cl)N1CCc2sccc2C1` [Clopidogrel (Plavix)] were, in that order, 1.11, -0.441, -0.263 and 0.244.
On the same counts, the results for `Clc1ccc2c(c1)CCc1cccnc1C2=C1CCNCC1` [Desloratadine] are -5.75, -4.57, -5.24 and -4.76.
On to `CCCCC(=O)O[C@H]1CC[C@H]2[C@@H]3CCc4cc(O)ccc4[C@H]3CC[C@]12C` [Estradiol valerate], for which the log2 surviving fraction with OVCAR4 (carboplatin co-treatment 0 µM) is -0.194; with OVCAR4 (carboplatin co-treatment 5 µM) it was 0.36; in the assay with Ov4Carbo (carboplatin co-treatment 0 µM) it was -1.18; in the assay on Ov4Carbo (carboplatin co-treatment 5 µM) it was -2.07.
On the same counts, the results for `O=C1c2c(O)ccc(O)c2C(=O)c2c(NCCNCCO)ccc(NCCNCCO)c21` [Mitoxantrone Hydrochloride] are -9.63, -8.13, -9.3 and -8.09.
The like results for `Nc1nc(N)nc(-c2cc(Cl)ccc2Cl)n1` [Irsogladine] were, in that order, 0.165, 0.203, -0.408 and 0.73.
Consider `CC(=O)Nc1ncc([N+](=O)[O-])s1` [Nithiamide], for which the log2 surviving fraction in the assay on OVCAR4 (carboplatin co-treatment 0 µM) is 1.51; in the assay with OVCAR4 (carboplatin co-treatment 5 µM) it was 1.59; in the assay with Ov4Carbo (carboplatin co-treatment 0 µM) it was 2.35; in the assay on Ov4Carbo (carboplatin co-treatment 5 µM), 0.834.
The like results for `O=c1[nH]c2ccccc2n1C1CCN(CCCC(c2ccc(F)cc2)c2ccc(F)cc2)CC1` [Pimozide] were, in that order, -1.49, -1.38, -3.33 and -2.22.
The like results for `CCOC(=O)CC(=O)N1CCSC1COc1ccccc1OC` (centres undefined) [Moguisteine] were, in that order, 0.139, 1.21, 0.146 and 0.745.
On the same counts, the results for `CC1COc2c(N3CCN(C)CC3)c(F)cc3c(=O)c(C(=O)O)cn1c23` (centres undefined) [Ofloxacin (Floxin)] are 0.715, 0.524, 0.404 and 0.413.
